Measurements from paper PMC4336329 (PLoS ONE, 2015).
About 14,000 (4.5%) of roughly 310,000 compounds showed an effect of 50% or more. Effects have a minus sign here. This is one part of the list.

Biological target: human ether-à-go-go-related gene (hERG) potassium channel (human, UniProt Q12809)
Assay: primary screen, population patch clamp on CHO cells stably expressing hERG
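Further: peak tail current of the secondary pulse compared with the same well before compound.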

Sequence of human ether-à-go-go-related gene (hERG) potassium channel (Q12809 whole entry, looked up): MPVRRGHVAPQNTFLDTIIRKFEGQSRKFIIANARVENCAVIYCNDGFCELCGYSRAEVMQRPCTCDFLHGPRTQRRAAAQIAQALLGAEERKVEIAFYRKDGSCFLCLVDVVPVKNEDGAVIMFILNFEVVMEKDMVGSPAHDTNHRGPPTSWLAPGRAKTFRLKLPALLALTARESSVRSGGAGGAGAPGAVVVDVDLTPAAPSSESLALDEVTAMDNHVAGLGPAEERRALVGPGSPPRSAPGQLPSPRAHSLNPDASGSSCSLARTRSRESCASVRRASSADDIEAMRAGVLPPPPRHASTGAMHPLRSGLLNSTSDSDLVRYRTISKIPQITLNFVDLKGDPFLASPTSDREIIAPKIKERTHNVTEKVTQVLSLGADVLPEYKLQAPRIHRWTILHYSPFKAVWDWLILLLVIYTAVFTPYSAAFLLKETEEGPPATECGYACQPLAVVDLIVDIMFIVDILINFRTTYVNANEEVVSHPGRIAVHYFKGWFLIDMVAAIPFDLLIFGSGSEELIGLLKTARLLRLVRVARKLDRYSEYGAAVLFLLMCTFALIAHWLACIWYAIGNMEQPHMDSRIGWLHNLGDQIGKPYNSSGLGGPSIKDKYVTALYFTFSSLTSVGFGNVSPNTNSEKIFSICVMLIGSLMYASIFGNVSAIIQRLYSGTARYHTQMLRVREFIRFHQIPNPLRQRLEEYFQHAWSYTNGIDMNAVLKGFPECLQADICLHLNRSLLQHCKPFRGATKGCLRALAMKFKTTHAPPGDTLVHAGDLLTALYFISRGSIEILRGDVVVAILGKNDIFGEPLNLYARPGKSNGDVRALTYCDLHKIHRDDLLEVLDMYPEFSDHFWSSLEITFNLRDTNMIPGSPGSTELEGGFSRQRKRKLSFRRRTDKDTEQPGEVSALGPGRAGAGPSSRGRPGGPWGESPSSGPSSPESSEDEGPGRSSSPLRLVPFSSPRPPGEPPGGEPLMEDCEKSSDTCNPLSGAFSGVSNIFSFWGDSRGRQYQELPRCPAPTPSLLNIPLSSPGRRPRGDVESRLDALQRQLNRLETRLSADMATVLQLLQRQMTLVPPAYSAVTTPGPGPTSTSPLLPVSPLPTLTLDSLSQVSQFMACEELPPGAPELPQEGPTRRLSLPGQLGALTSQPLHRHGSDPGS

First: Cc1ccnc(NC(=O)c2ccc(S(=O)(=O)NCc3ccco3)cc2)c1
Second: Cc1ccc(C(=O)Nc2ccc(S(=O)(=O)Nc3cnc4ccccc4n3)cc2)cc1
The “hERG current change (%, negative = inhibition) at 10uM” value of the first is higher: 10.4% for the first, 2.06% for the second.

Going from `COc1ccc(OC)c(S(=O)(=O)N2CCC(NC(=O)c3ccccc3)CC2)c1` to `Cc1ccc(S(=O)(=O)N2C(=O)CCC2C(=O)O/N=C(\N)c2ccccc2)cc1` (stereo not drawn), the “hERG current change (%, negative = inhibition) at 10uM” value falls from 25.2% to -8.8%.

First: CC1=C(/C=C/C(C)=C/C=C/C(C)=C/C(=O)Nc2ccc(O)cc2)C(C)(C)CCC1
Second: COc1cc(/C=N/NC(=O)CC2(C)OCCCO2)ccc1OCc1ccc(Cl)cc1Cl
The “hERG current change (%, negative = inhibition) at 10uM” value of the first is higher: 17.6% for the first, -2.83% for the second.

Going from `C=CCSC1=NNC(c2ccc(C(C)(C)C)cc2)=NN1` to `CC(C)(C)c1ccc(S(=O)(=O)NNC(=O)c2cc3ccccc3[nH]2)cc1`, the “hERG current change (%, negative = inhibition) at 10uM” value rises from -10.4% to 13.9%.

Going from `COc1cc(OC)cc(C(=O)Nc2ccc3nc4n(c(=O)c3c2)CCCC4)c1` to `COc1ccc(OC)c(/C=C/C(=O)NC2=NCCS2)c1`, the “hERG current change (%, negative = inhibition) at 10uM” value falls from 11.2% to 1.7%.

Compared with `O=C(NCCCN1CCOCC1)c1cc(-c2cccs2)on1`, `O=C(/C=C/c1ccc(Br)cc1)NC(=S)N1CCOCC1` is higher in “hERG current change (%, negative = inhibition) at 10uM” value: -15.7% for the first, 12.9% for the second.

Compared with `Cc1cccc(/C=N/NC(=O)c2cccc(Cl)c2)n1`, `Cc1cccc(C)c1NC(=O)COC(=O)c1ccccc1O` is lower in “hERG current change (%, negative = inhibition) at 10uM” value: 9.94% for the first, 1.57% for the second.

Compared with `C(#Cc1ccccc1)C[N+]1(CC#Cc2ccccc2)CCCC1.[Br-]`, `CCOc1ccccc1N(CC(=O)N(C)Cc1ccccc1)S(=O)(=O)c1ccccc1` is higher in “hERG current change (%, negative = inhibition) at 10uM” value: -55.5% for the first, -19.2% for the second.

Compared with `CSCCC(NC(=O)c1ccco1)C(=O)Nc1cc(C)ccn1` (stereo not drawn), `COCCSc1nnc(NC(=O)c2ccc(NC(=O)C(C)C)cc2)s1` is higher in “hERG current change (%, negative = inhibition) at 10uM” value: -15.5% for the first, 8.82% for the second.

First: CC(=O)C1=C(O)C(=O)N(Cc2ccccc2)C1c1cccs1 (stereo not drawn)
Second: CCCN1Cc2cccc(C(=O)NCCc3ccccc3)c2C1=O
The “hERG current change (%, negative = inhibition) at 10uM” value of the first is higher: 6.75% for the first, -18.3% for the second.

Going from `COc1ccc(NC(=O)CN2CCCCC2)c([N+](=O)[O-])c1` to `NC(=O)COC(=O)/C=C/c1ccc(S(=O)(=O)N2CCCCCC2)cc1`, the “hERG current change (%, negative = inhibition) at 10uM” value rises from -32.3% to 4.74%.

Going from `Cc1cc(Br)c(NC(=O)COC(=O)CSc2nnc(-c3ccc(Cl)cc3)o2)c(Br)c1` to `C=CCN1C(=O)c2ccc(C(=O)OCC(=O)Nc3ccccc3OC)cc2C1=O`, the “hERG current change (%, negative = inhibition) at 10uM” value rises from 1.39% to 14.8%.

Going from `CCN(CC)CCCOC(=O)C1(c2ccccc2)CCCC1` to `CCN(CC)Cc1c[nH]c2ccccc12`, the “hERG current change (%, negative = inhibition) at 10uM” value rises from -25.6% to -1.42%.

Compared with `CN(Cc1ccccc1)C(=O)CCNS(=O)(=O)c1ccc2c(c1)oc(=O)n2C`, `CN(C)C(=O)c1ccccc1NC(=O)Cc1cccc2ccccc12` is higher in “hERG current change (%, negative = inhibition) at 10uM” value: -37% for the first, 17.9% for the second.

First: C/C(=C\c1ccccc1)CN1CCN(C(C)C)C(CCO)C1 (stereo not drawn)
Second: Cc1ccc(C(=O)N2CCN(C(=O)c3ccccc3)C2c2ccc(N(C)C)cc2)cc1 (stereo not drawn)
The “hERG current change (%, negative = inhibition) at 10uM” value of the first is higher: -18.7% for the first, -50.8% for the second.

First: O=[N+]([O-])c1cc(Br)cc(/C=N/n2cnnc2)c1O
Second: Cn1c(=O)[nH]c(Nc2ccc(F)cc2)c([N+](=O)[O-])c1=O
The “hERG current change (%, negative = inhibition) at 10uM” value of the first is higher: 17.2% for the first, 2.52% for the second.

Compared with `CC(OC(=O)CNC(=O)c1ccc2c(c1)OCO2)C(=O)NCCC1=CCCCC1` (stereo not drawn), `COc1ccc(CNC(=O)C(C)N2C(=O)COc3ccc(C)cc32)c(OC)c1` (stereo not drawn) is higher in “hERG current change (%, negative = inhibition) at 10uM” value: -2.85% for the first, 8.76% for the second.

Compared with `COC(=O)c1c(NC(=O)C(=O)NCC2CCCO2)sc2c1CC(C)(C)OC2` (stereo not drawn), `COC(=O)c1cccc(NS(=O)(=O)c2ccc(NC(C)=O)cc2)c1C` is lower in “hERG current change (%, negative = inhibition) at 10uM” value: 18.1% for the first, 0.788% for the second.

Going from `O=C(Cc1cccs1)NNC(=S)NC(=O)c1ccccc1` to `CCNC(=S)NNC(=O)c1cc(-c2cccc(OCC)c2)nc2ccccc12`, the “hERG current change (%, negative = inhibition) at 10uM” value falls from 8.53% to -8.38%.

Compared with `CC1(C(=O)NCCc2c[nH]c3ccccc23)C=CCN1C(=O)c1ccccc1` (stereo not drawn), `CCOc1ccc(C(=O)C(C)OC(=O)Cn2[nH]c(=O)c3ccccc3c2=O)cc1` (stereo not drawn) is lower in “hERG current change (%, negative = inhibition) at 10uM” value: 3.91% for the first, -34.3% for the second.

First: COc1ccccc1C1N=C(c2ccccc2C)NO1 (stereo not drawn)
Second: Cc1nnc(SCC(=O)N/N=C/c2cn(-c3ccccc3)nc2-c2ccc(F)cc2)n1-c1ccccc1
The “hERG current change (%, negative = inhibition) at 10uM” value of the first is higher: 4.29% for the first, -3.86% for the second.

Going from `CCn1cc(C2=NOC(C(=O)O)C2)c(C)n1` (stereo not drawn) to `COc1ccc(N2CCN(C(=O)CCC(=O)NNc3nc4ccccc4c4nc(C)nn34)CC2)cc1`, the “hERG current change (%, negative = inhibition) at 10uM” value falls from -3.4% to -29.1%.

Compared with `COc1ccc(N(CC(=O)O)S(=O)(=O)c2ccc(OC)c(OC)c2)cc1`, `CC(=O)Nc1ccc(S(=O)(=O)NC(C)c2ccncc2)cc1` (stereo not drawn) is higher in “hERG current change (%, negative = inhibition) at 10uM” value: -29.6% for the first, 13.4% for the second.

Compared with `C/C(=N\Nc1ccc(C(=O)O)cc1)c1ccc(-n2ccnc2)cc1.O=S(=O)(O)O`, `CCCCC(CC)C(=O)NCCc1ccc(S(N)(=O)=O)cc1` (stereo not drawn) is lower in “hERG current change (%, negative = inhibition) at 10uM” value: 14.5% for the first, 0.61% for the second.

First: Cc1onc(-c2c(F)cccc2Cl)c1C(=O)N1CCN(c2ncccn2)CC1
Second: COC(=O)c1sccc1Oc1ccc(Cl)cc1N1C(=O)CCC1=O
The “hERG current change (%, negative = inhibition) at 10uM” value of the first is lower: -11.6% for the first, 14% for the second.

Going from `COc1ccc(OCC(O)CN2CC(C)OC(C)C2)cc1.Cl` (stereo not drawn) to `O=c1cc(O)nc(SCc2ccccc2Cl)[nH]1`, the “hERG current change (%, negative = inhibition) at 10uM” value rises from 17.5% to 18.6%.

Going from `O=C(O)c1nnn(-c2cc(C(F)(F)F)cc(C(F)(F)F)c2)c1-c1ccccc1` to `Nc1nnc(CC(=O)Nc2ccccc2)s1`, the “hERG current change (%, negative = inhibition) at 10uM” value falls from 15.5% to 6.99%.

Going from `C=CCn1c(NCCOC)nc2c1c(=O)n(C)c(=O)n2C` to `CCOC(=O)N1CCN(C(=O)C2CCN(S(=O)(=O)N3CCCC3)CC2)CC1`, the “hERG current change (%, negative = inhibition) at 10uM” value falls from 11.1% to 6.91%.

`CCNC(=S)N/N=C/c1cccs1` was tested, and the “hERG current change (%, negative = inhibition) at 10uM” value was 6.26%.
